# Key:
# [1] = system: HA protein
# [2] = system: HA protein; remark: listed apart in the source
compound,measurement,setting,value
"CC1=C(/C=C/C(C)=C/C=C/C(C)=C/C(=O)O)C(C)(C)CCC1 [ATRA, all-trans retinoic acid]",HA-specific IgA titers in intestinal lavage,"[1]; in vivo, sc",significant increase
same,HA-specific IgA titers in sera,"[1]; in vivo, sc",significant increase
"Nc1nc2c(ncn2[C@@H]2O[C@@H]3COP(=O)(O)O[C@H]4[C@@H](O)[C@H](n5cnc6c(=O)[nH]c(N)nc65)O[C@@H]4COP(=O)(O)O[C@H]3[C@H]2O)c(=O)[nH]1 [c-di-GMP, cyclic diguanylate monophosphate]",neutralizing antibody titers against the HA protein,[2]; in vivo,higher neutralizing antibody titers
"HMGB1: high mobility group protein (HMGB) compound, which may act as an endogenous immunomodulator",neutralizing antibody titers against the HA protein (HI antibody titer),"[2]; Balb/c mice, i.m. days 0 and 21, 40 μg HA-mRNA (R2564) plus adjuvant, day 35 (day 14 after booster), compared to HA-mRNA alone (Example 2, FIG. 5)",higher neutralizing antibody titers
same,HA-specific IgG1 titers in sera,"[1]; BALB/c mice, i.m. days 0 and 21, adjuvant combined with HA-mRNA (R2564); day 14 after booster; […], FIG. 3)",higher antibody titers
same,HA-specific IgG2a titers in sera,"[1]; BALB/c mice, i.m. days 0 and 21, adjuvant combined with HA-mRNA (R2564); day 14 after booster; […], FIG. 4)",higher antibody titers

# — patent US20180296663A1 (priority 2015, published 2018)
